B1: chr1:203741760:203741861:+|3pUTR|ENSG00000058668|msi1|FALSE|unique (ssRNA)
RNA: GGGAGUUCUACAGUCCGACGAUCAUUUUGGUUUUGUAAAACGUACAUGCUUCAAUAAUUCUUUUUUGUGUCUUAAAUACUCAUAGGGGAAAAAAACAGCUCACCCAAGGUGUUAGGUUUCACAUAUAUAUUCAUCAACUAUUUCAACAGAGGAUUGAGCAUCA
B2: ENSG00000152601:stop:overlap|stop_codon|ENSG00000152601|stop_codon|NA|stop_codon (ssRNA)
RNA: GGGAGUUCUACAGUCCGACGAUCACCAGAUACCCAUAAUAUCUGCCGAACAUCUGACUAGCCACAAGUAUGUUACCCAGAUGUAGAAUUUUCAUCACUAAACAAUCAUGCUAAAGAGGAAAGGACAGUGUGCUUGGUUAGAGUCAACAGAGGAUUGAGCAUCA
B3: chr12:123761472:123761573:+|3pUTR|ENSG00000185344|unk|FALSE|unique (ssRNA)
RNA: GGGAGUUCUACAGUCCGACGAUCAAUAAGGCAGUUUGAACGAACAGUCUUCCCACAGUCAGGCCAUUUUUGCUGAUUUGGUUUAGAAUUUUCAGAAAUACUUAGUACACUCCACCUGUUCUUUGAUGGGAAUAUCUAAGAAGGCAACAGAGGAUUGAGCAUCA
B4: chr3:12540195:12540433:-|CDS|ENSG00000225526|control|control|control (ssRNA)
RNA: GGGAGUUCUACAGUCCGACGAUCCACCAUAACUGCUACUCUUACGCACUCACGUUCAUUAACUGCGUUCUGAUGGCAGAAGGUAGACAGCAACUGGACAAGGGUGAAUUUACGGAGAAGUACGUGGUCCCGCGGACAAGGCUGCAACAGAGGAUUGAGCAUCA
B5: chr1:155134173:155134274:+|3pUTR|ENSG00000169242|msi1|FALSE|unique (ssRNA)
RNA: GGGAGUUCUACAGUCCGACGAUCGCCACUUUCAGAGCCCCCAGCCCUGGGAACCACUCCCACCACAGGCAUAAGCUAUCACCUAGCAGCCUCAAAACGGGUCAGUAUUAAGGUUUUCAACCGGAAGGAGGCCAACCAGCCCGACAACAGAGGAUUGAGCAUCA
B6: chr19:34469546:34469571:+|3pUTR|ENSG00000126261|msi1_unk|FALSE|overlapping (ssRNA)
RNA: GGGAGUUCUACAGUCCGACGAUCGUUGCCUUUUUAAUGUAAAUACCCGUAGGUAUCAUUAAUAGUUUCAAAAUAUUGUGGUUUAGUAAAGUUGAUACCUGGUUAUAAAUAUUAUGCCUUUAUUUUUGGCUAGAAGAAGAAUUACAACAGAGGAUUGAGCAUCA
B7: chr2:166409664:166409935:-|three_prime_utr|ENSG00000136546|control|control|control (ssRNA)
RNA: GGGAGUUCUACAGUCCGACGAUCUGUGGUAACAAGCCAAGCUUUUAAUGUCAUUGUUAUGGUUCUUAUAUGUUUCCAAGCAAUAGCCAUGAUGAUAGACACUGAUGUUCAGAGUCUACAAAUGUCCAUUGCUCUCUACUGGAUCAACAGAGGAUUGAGCAUCA
B8: chr11:63758435:63758536:+|3pUTR|ENSG00000133318|msi1|FALSE|unique (ssRNA)
RNA: GGGAGUUCUACAGUCCGACGAUCAGAAAGAAUCAAAUUCAUAGGAUAAGUCAAUACCUUAAUGGUGGUAGAGCCUUUACCUGUAGCUUGAAAGGGGAAAGAUUGGAGGUAAGAGAGAAAAUGAAAGAACACCUCUGGGUCCUUCAACAGAGGAUUGAGCAUCA
B9: chr10:123051058:123051159:+|CDS|ENSG00000196177|unk|total|mutant (ssRNA)
RNA: GGGAGUUCUACAGUCCGACGAUCCAAGUGGCUCACGUGGCCACCCAGCUGGAAGCUGCAAGAUUACUAACAUACAAUGCUGCCCGGCUUUCCGAAGCUGGAAAGCCAUUCAUAAAAGAAGCGUCAAUGGCCAAAUACUAUGCACAACAGAGGAUUGAGCAUCA
B10: chrX:119453419:119453520:+|3pUTR|ENSG00000077713|unk|FALSE|unique (ssRNA)
RNA: GGGAGUUCUACAGUCCGACGAUCCAGGUAAUUGAAGUGGCUGAGUGGAUACCACGUUGUGAGGUCAGCCACUGGGUCACUUGUAGUCAAUGCAAAGCUUGCACAAACCAACGUCAGCCUAGUUUCACUCAGUUUGACCUGAGACAACAGAGGAUUGAGCAUCA
B11: chr16:3727180:3727281:-|3pUTR|ENSG00000005339|msi1|total|mutant (ssRNA)
RNA: GGGAGUUCUACAGUCCGACGAUCAAUGCAAGCUUAUAAUGUAUCCCGAUAACUUUGUGAUGUUUCGGGAAGAUUUUUUUCUACCGUGAACUCUGUGGGCGUCUCCCAGUAUUACCCUGGAUGACCGGAAUUGACUCCGGCGUGCAACAGAGGAUUGAGCAUCA
B12: chr7:6403584:6403671:+|3pUTR|ENSG00000136238|msi1_unk|total|mutant (ssRNA)
RNA: GGGAGUUCUACAGUCCGACGAUCUUUUCCCGUAACCCGGUGUAAAAAUCAUGUGUUGCAGCUUUACCGUUUUUAAAAUAUUUCCGAUAAUUCUUAAACUAUGAACCUUCUUAACAUCACUGUCUUGCCAGAUUACCGACACUGCAACAGAGGAUUGAGCAUCA
B13: chr2:190436306:190436418:+|CDS|ENSG00000151690|unk|FALSE|unique (ssRNA)
RNA: GGGAGUUCUACAGUCCGACGAUCCCUUUUGCCUGUGUAUUACAAACAGCUGGGAAUGUCUCCAAGCCAGAGUGGACUACUAGUAGGUAUUCGUUACUUCAUUGAAUUCUGCAGUGCCCCCUUUUGGGGUGUAGUUGCAGACCGCAACAGAGGAUUGAGCAUCA
B14: chr1:51919672:51919773:-|3pUTR|ENSG00000169213|unk|total|mutant (ssRNA)
RNA: GGGAGUUCUACAGUCCGACGAUCUAUUCUUUGCCUGCCCCUGGGGUUCUCUGCAGAUGGUCCCAGUAACCGAUACUCAGCACCCGACUAACAUAACAGGUCACUACACGGGUGCAGAAUCACUUUACAAAAGAAGACUCUGUUCAACAGAGGAUUGAGCAUCA
B15: chr4:102797111:102797208:-|3pUTR|ENSG00000109332|msi1_unk|FALSE|overlapping (ssRNA)
RNA: GGGAGUUCUACAGUCCGACGAUCUCUGAGAAGACUUAAGUUCUUCCAGCUUUGGACAAUAACUGCUUUUAGAAACUGUAAAGUAGUUACAAGAGAACAGUUGCCCAAGACUCAGAAUUUUUAAAAAAAAAAAUGGAGCAUGUGCAACAGAGGAUUGAGCAUCA
B16: chr6:132296306:132296407:-|3pUTR|ENSG00000079931|msi1|FALSE|unique (ssRNA)
RNA: GGGAGUUCUACAGUCCGACGAUCAUGGGAAACAUAGAAAUGGUAUGUAUUAAUAACUGAUCAUAGGCUGAGGAGAAAAAAUGUAGCUGGCUGCAAACCCAGUGCUGUGAGGUGACUUAUAUGAGGUUCCAGAUCAAAGACAGGCAACAGAGGAUUGAGCAUCA
B17: ENSG00000198589:be:win_5701|CDS|ENSG00000198589|bound_else_gene|NA|bound_elsewhere_windowed (ssRNA)
RNA: GGGAGUUCUACAGUCCGACGAUCUUUAUCCUGAGCAGGCAGAGAGCAGAAGAUAUUCACAGACAUGCGGAAUUUGAGUCACUGUGUGCCCAGUAUUCUGCAGACAAACGAGAAGAUGAGAAGAUGUGUGAUCAUUUGAUAAGACAACAGAGGAUUGAGCAUCA
B18: chr17:34256851:34257067:+|3pUTR|ENSG00000108691|msi1|FALSE|unique (ssRNA)
RNA: GGGAGUUCUACAGUCCGACGAUCUUAAGUAAUGUUAAUUCUUAUUUAAGUUAUUGAUGUUUUAAGUUUAUCUUUCAUGGUACUAGUGUUUUUUAGAUACAGAGACUUGGGGAAAUUGCUUUUCCUCUUGAACCACAGUUCUACCAACAGAGGAUUGAGCAUCA
B19: chr3:141442868:141442977:+|CDS|ENSG00000177311|unk|FALSE|unique (ssRNA)
RNA: GGGAGUUCUACAGUCCGACGAUCCCAGCCAUCACUAAUGGGCCAAGGAUCACAAAUGCAUUUUCCAUCAUCGAAACAGAAAAUAGUAAUAACAUGUUUUCCCCGCUGGACUUGAGGGCAAGUUUCAAAAAGGUCUCCGACUCCCAACAGAGGAUUGAGCAUCA
B20: ENSG00000162129:stop:overlap|stop_codon|ENSG00000162129|stop_codon|NA|stop_codon (ssRNA)
RNA: GGGAGUUCUACAGUCCGACGAUCAGACUCGCAGACUGGACAUCCGGGCACCACUGCACCCUGAGAAGGUGUGCAACACCAUCUAGCAGCCACCUGCCUGCUCCUAUGUGCCCUCACCAUCCAAUAAAGGCCCCUUGGCUGUGGCAACAGAGGAUUGAGCAUCA
B21: chr12:110381781:110381892:-|CDS|ENSG00000196510|unk|total|mutant (ssRNA)
RNA: GGGAGUUCUACAGUCCGACGAUCAAGGCCAUUCAGCUGAACAGUAACCGUGUUCAAGCUCUGCUACUUAAGGGAGCAGCACUCCGGAACAUGGGCAGAGUCCAAGAAGCAAUAAUCCACUUUCGGGAGGCCAUACGGCUCGCACAACAGAGGAUUGAGCAUCA
B22: chr16:57471571:57471634:+|3pUTR|ENSG00000102978|msi1_unk|FALSE|overlapping (ssRNA)
RNA: GGGAGUUCUACAGUCCGACGAUCAUAGCCUUUAUUCAGGGGGCCUAUAAACCCUUCCAGUUCUUGCCCCAGGGCUGGCCUGCUAGCGCUUCAAAUUCCCAGGUGUCCCUAAUUUGAGAAGUAACCUUUUGGAAUAGCAUUAGACAACAGAGGAUUGAGCAUCA

Experimental findings from article PMC12136788 are described below.

The list shows a part of the results.

The test addresses MSI1 full-length (mouse, UniProt Q61474 1-362). The test can be described thus: nsRBNS (natural sequence RNA bind-n-seq); RBNS binding buffer (assumed for nsRBNS): 25 mM Tris pH 7.5, 150 mM KCl, 3 mM MgCl2, 0.01% Triton X-100, 500 ug/ml BSA, 20 U/ml SUPERase-In, 4 C; UNK is unkempt and MSI1 is Musashi-1; names of the RNAs are library labels; protein concentration not given here; high values mean tight binding.
UniProt Q61474, sequence (Q61474 whole entry): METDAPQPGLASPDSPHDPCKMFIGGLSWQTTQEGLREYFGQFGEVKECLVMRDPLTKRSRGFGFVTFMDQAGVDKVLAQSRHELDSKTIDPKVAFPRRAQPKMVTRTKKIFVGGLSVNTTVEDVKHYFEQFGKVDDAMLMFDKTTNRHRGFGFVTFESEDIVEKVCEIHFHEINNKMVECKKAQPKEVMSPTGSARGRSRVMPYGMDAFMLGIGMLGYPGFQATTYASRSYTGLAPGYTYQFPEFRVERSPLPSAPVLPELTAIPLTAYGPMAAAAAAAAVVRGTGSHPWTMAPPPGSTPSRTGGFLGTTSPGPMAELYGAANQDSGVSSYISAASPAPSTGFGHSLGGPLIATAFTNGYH
Turning to B1, the binding signal came out at 2.11 enrichment R. With B2 the figure was 0.651 enrichment R; with B3, 0.821 enrichment R. B4 gave a binding signal of 0.389 enrichment R.

Take B5: the binding signal stood at 0.655 enrichment R.

Turning to B6, the binding signal was 35.8 enrichment R. Take B7: the binding signal was found to be 0.263 enrichment R. With B8 the figure was 0.702 enrichment R; with B9, 0.283 enrichment R; with B10, 0.46 enrichment R. With B11 the figure was 0.299 enrichment R. In the case of B12, the binding signal is 0.784 enrichment R. With B13 the figure was 0.399 enrichment R; with B14, 0.446 enrichment R; with B15, 0.542 enrichment R. With B16 the figure was 0.782 enrichment R; with B17, 0.412 enrichment R; with B18, 2.2 enrichment R. With B19 the figure was 0.514 enrichment R; with B20, 0.491 enrichment R; with B21, 0.369 enrichment R.

In the case of B22, the binding signal came to 3.1 enrichment R.
